Data on 11 molecules can be found in the antibiotic and cytotoxicity screens of Wong et al. (2023).

Each structure is given as a SMILES string. The list shows a part of the results.

The experiment concerns HSkMC (human skeletal muscle cells). Kind of experiment: cytotoxicity call (relative viability < 0.9). Particulars: 10 µM.
`CNC(=O)Nc1ccc(S(N)(=O)=O)cc1`: the cytotoxicity call was “inactive”.

Regarding `COC(=O)C(CC#Cc1ccc2c(c1)[C@]1(C(=O)N2)[C@H](c2ccc(OCCO)cc2)N2[C@H](c3ccccc3)[C@H](c3ccccc3)OC(=O)[C@H]2[C@@H]1C(=O)Nc1nc2ccccc2s1)C(=O)OC`, the cytotoxicity call was “inactive”.

For `C[C@H]1CN([C@@H](C)CO)C(=O)CCCn2cc(nn2)CO[C@H]1CN(C)Cc1ccc2c(c1)OCCN2C`, the cytotoxicity call is “inactive”.

On to `C[C@@H]1CN([C@@H](C)CO)C(=O)c2cc(NC(=O)Cn3cnnn3)ccc2O[C@H]1CN(C)Cc1ccc2c(c1)OCO2`, for which the cytotoxicity call is “inactive”.

Regarding `COc1ccc(S(=O)(=O)N(C)C[C@@H]2Oc3c(NC(=O)c4cc(C)nn4C)cccc3C(=O)N([C@H](C)CO)C[C@H]2C)cc1`, the cytotoxicity call is “inactive”.

Consider `C[C@H](CO)N1C[C@H](C)[C@@H](CN(C)S(=O)(=O)c2ccc(Cl)cc2)OCCCC[C@H](C)Oc2ccc(NC(=O)c3ccncc3)cc2C1=O`, for which the cytotoxicity call was “inactive”.

On to `Cc1cn(CCC#N)c2ccccc12`, for which the cytotoxicity call is “inactive”.

With `Cc1ccc(S(=O)(=O)Nc2ccc3c(c2)C(=O)N([C@@H](C)CO)C[C@@H](C)[C@H](CN(C)C(=O)C2CCCCC2)OCCCC[C@@H](C)O3)cc1`, the cytotoxicity call was “inactive”.

Take `COc1ccc(-c2cn3cc(C(=O)NCC(N)=O)nc3c(=O)n2CC2CC2)c(F)c1`: the cytotoxicity call was “inactive”.

`Cc1noc(C)c1S(=O)(=O)N(C)C[C@@H]1Oc2ccc(NC(=O)NC3CCCCC3)cc2CC(=O)N([C@@H](C)CO)C[C@H]1C`: the cytotoxicity call was “inactive”.

For `C[C@@H]1CN([C@H](C)CO)C(=O)c2cc(NC(=O)Nc3ccc(C(F)(F)F)cc3)ccc2O[C@H]1CN(C)Cc1ccncc1`, the cytotoxicity call was “inactive”.
